Measured values: the supplement of paper PMC10126150
Sequences with one replicate were seen in a single cluster, so their values are uncertain.

Test system: ATP
Experiment: switch fluorescence ratio, 500 uM ATP over buffer (Cy3 cluster intensity, sum of 5 cycles each) (fold (ratio)); higher = stronger signal-on switching upon ATP binding; sequences stand for … in TCGTCGGCAGCGTCAGATGTGTATAAGAGACAGTTTTTTTTTTTTTTTTTTTTTTTTT…TC
Conditions: aptamer strand: ATP DNA aptamer (quencher-CACCTGGGGGAGTATTGCGGAGGAAGG + anchor), 100 nM annealed; ATP concentration: 500 uM; one replicate
How it was run: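 The fluorescence ratio divides summed target-cycle Cy3 intensity by summed buffer-cycle Cy3 intensity for each cluster and is averaged per switch-domain sequence. Cy3-labelled switching-strand clusters on a modified Illumina MiSeq flow-cell were annealed to 100 nM quencher-labelled ATP aptamer, then imaged in selection buffer and again after 15 min with 500 uM ATP at 22 °C. Five such cycles were run, with NaOH stripping and re-annealing between them, and clusters outside 100-1000 RFU were excluded.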
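Also: ATP exposure 15 min at 22 °C before imaging.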

Row | Sequence | switch fluorescence ratio
1 | GCATCTCTAA | 1.02
2 | AGAAAATTCA | 1.05
3 | GCGCAGACGG | 1.04
4 | TCGATTAAAG | 1.02
5 | GACGCGAGAT | 4.5
6 | TATTAGATTA | 0.959
7 | TGCATATTCC | 1.08
8 | TGGGTGCAAG | 0.969
9 | GGCCGTAAGT | 0.987
10 | CTCGTACTCT | 1.04
11 | GGATAAGCGC | 1.03
12 | CGTGTCCCGG | 0.971
13 | TTTGACCAGC | 1.04
14 | CAAGGAGTCA | 0.995
15 | AGTTGCTTTA | 0.953
16 | ACGAAAAACT | 1.1
17 | ACATGCTAG | 1.02
18 | CTGTGCCGGG | 0.961
19 | TTTGACAGGT | 1.06
20 | GGCGTGGTAT | 1.5
21 | TTTTCCGGCG | 1.11
22 | TGTTGTCTAC | 1.02
23 | GGTGCAGGGT | 0.976

Row | Sequence | switch fluorescence ratio
24 | CTGTCCGAGG | 1
25 | GTATGGGAAG | 0.984
26 | CTTCAGTGG | 0.982
27 | ATAAGGTAAG | 1.01
28 | AGGTCATCTA | 0.969
29 | CGACAACGAA | 1.04
30 | TTGTCACTTG | 1.01
31 | CGAAAGACGT | 1.01
32 | CATCAAGTTC | 0.951
33 | CAGTTCAACG | 1.03
34 | CTGTACTGCA | 1.16
35 | TCGGTGATAA | 1.06
36 | GCACTTTGGT | 1
37 | GAGTATTAAA | 0.959
38 | ATGCCAGGAG | 1.01
39 | TAGACACGTT | 0.991
40 | TGCCCGCCTC | 1.16
41 | TAGGGTCG | 1.01
42 | GTGTCTGCAG | 1.01
43 | CATAGCTT | 1.06
44 | ATCGTTTGGA | 0.97
45 | GGTAGGCGTG | 1.03
46 | TTTTGACAAC | 1.04

Row | Sequence | switch fluorescence ratio
47 | ACCAAGTTCT | 1.01
48 | TTGACCGAAG | 0.988
49 | AAAGTTCGCG | 0.971
50 | ACACATCGAT | 0.98
51 | TTTGACCGGT | 0.985
52 | CACGCATTTG | 1.11
53 | CATTAAGGAT | 0.995
54 | AGCCGTGGGG | 0.983
55 | GGAGATCAGC | 1.03
56 | CGGAGGGCTC | 1.03
57 | TAGTACGT | 1.06
58 | CAGGCTAGAC | 1.01
59 | TACATAAGGC | 1.01
60 | CCCGGCAATT | 5.41
61 | TTGTTTGAGC | 0.972
62 | GCTCCCATTA | 2.27
63 | CTATGATGAT | 0.968
64 | AAGTTGTTAC | 1.03
65 | TCTACTAGGG | 1.31
66 | CGCATTGTGT | 1.1
67 | GCTACTCTTG | 1.08
68 | GGTTTGGACA | 0.972
69 | GTGATGCGGG | 0.987

Row | Sequence | switch fluorescence ratio
70 | TAACTTTACG | 1.13
71 | GACCTTGAA | 0.991
72 | CTAATCACT | 1.05
73 | TTTACAATTA | 1.08
74 | TGACGCGGCT | 1.01
75 | ATAATCCTTC | 1.19
76 | GAAGCCTCGG | 1.01
77 | TTTAGATGAT | 0.981
78 | TCGCAGTCTT | 1.03
79 | GATTTGGCGC | 0.972
80 | CTCAGGGTAT | 1.01
81 | ACTTAACTCG | 1.05
82 | CCAGAAGGGC | 1.07
83 | GCCTAAGGTC | 0.953
84 | TAGGTTGCAG | 0.971
85 | AGTCACGGCA | 1.08
86 | ACGGCGAGAC | 3
87 | ATATTGGAGC | 0.99
88 | TGGATTAGT | 1.02
89 | CGTTTGATTC | 0.949
90 | GTTCAAATAA | 1.03
91 | GAGGGGCGGG | 0.981
92 | AAAAGCAGTG | 1.03

Row | Sequence | switch fluorescence ratio
93 | CCTACGGGTA | 2.17
94 | CAGTAAATTG | 1.02
95 | CGATGTTGTT | 0.961
96 | CATAGTTATG | 0.98
97 | GGCAAGGGAT | 0.993
98 | TCACCCGTAG | 1.08
99 | CCTTGTTCGC | 1.19
100 | CGGGTGATGT | 0.963
101 | GCGCTTTGCT | 1.05
102 | GCTGGTGTCC | 1.01
103 | AACTCTACC | 1.21
104 | GGATATGTAA | 1.01
105 | TCATTTGCCC | 0.979
106 | TGTTGTTATG | 0.968
107 | GGCCCTCAAT | 1.06
108 | TTTCCTAATG | 1.02
109 | CTTAATAGCG | 0.949
110 | AGCATGGAGT | 1.03
111 | ACCGACGTGA | 3.13
112 | TATCCCCAAG | 1.06
113 | ACGATTTTGA | 0.987
114 | TCAAAACTCC | 1.18
115 | TCTGTGCTTA | 1.06

Row | Sequence | switch fluorescence ratio
116 | ATTGTTTCCG | 1.05
117 | GATTCTTGAT | 0.956
118 | CCTTATGACC | 1.14
119 | GTCCCCGTCT | 0.925
120 | GGGGAGTTGT | 0.98
121 | ATATCTAATC | 0.966
122 | TCAAGCGGAT | 1.01
123 | ATTTGCCTG | 1.07
124 | TAGAATCTTC | 0.996
125 | TTCAATTTCA | 1.02
126 | TTGGTATCGG | 0.997
127 | CTTGGACTTT | 0.94
128 | TCGTGGCAGT | 1.03
129 | CCATGAAGGT | 1.04
130 | TGATATGAGA | 0.987
131 | CTCGACAGCT | 1
132 | CATGCATTGG | 1.01
133 | GGTAATATGA | 1.01
134 | AAGTATGAGC | 1.02
135 | CCATGAGAGC | 1.05
136 | CGGGGGCGG | 0.992
137 | GTCAGGTTCG | 0.988
138 | TCCCTCGAGT | 1.06

Row | Sequence | switch fluorescence ratio
139 | CCATTCGGCG | 1.02
140 | CTGATGCGAC | 2.85
141 | CAATTAGAAT | 1.01
142 | ATAAGCCAGA | 1
143 | GTTGAGGAGT | 0.978
144 | TTTTGAGAGC | 1.12
145 | GCCCATCCCG | 1
146 | TTTGCTATTT | 1.08
147 | TCGCTGCGAT | 1.08
148 | TAATATTCAT | 0.968
149 | GGTCCTAAAA | 0.997
150 | TTGGTCTGCA | 0.98
151 | TGGAAATTA | 0.978
152 | CCACAAAAAT | 1.04
153 | GTCGAGACGG | 1.03
154 | TTAGTACCGA | 1.07
155 | ACCCCGATCC | 1.03
156 | CTAAGTTGGA | 0.984
157 | TTACATCGGC | 1.02
